In PubChem BioAssay AID1508642 (National Center for Advancing Translational Sciences (NCATS), 2021):
About 200 (0.47%) of roughly 43,000 compounds were called active. Roughly 12% stayed inconclusive and do not appear here. The call rests on the fitted dose curve; in most records, active means well fitted cell-killing curve with a large enough effect; inconclusive means small, poorly fitted or top-dose-only effect, or effect the other way; inactive means flat fitted curve, though single readings scatter. The list shows a part of the results.

Test: Cell viability qHTS assay in S16 Pmp22-F2sN cells; further: nearly all actives have a fitted effect of over 65% in size
Conditions: S16 Pmp22-F2sN Schwann cells viability, CellTiter-Glo, 24 h; series mostly up to 57.5 µM; activity change, negative = cytotoxicity: at the top concentration
How it was run: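 Viability was measured by CellTiter-Glo luminescence (15 min, room temperature). This followed 24 h at 37 °C of compound exposure (23 nL pin transfer) in S16 Pmp22-F2sN Schwann cells, 500-1,000 per well.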
On the % scale 0 is the no-effect control and ±100 the full control effect.

Compound | activity change, negative = cytotoxicity
COc1ccc(-c2nn(-c3ccc(C)c(Cl)c3)c3c2cnc2cc(OC)c(OC)cc23)cc1 | inactive: 10.6%
Nc1nc(Nc2cccc(Cl)c2)sc1C(=O)c1ccc(F)cc1 | inactive: -26.9%
CCOc1ccc(/C=C/C(=O)Nc2sc3c(c2C(=O)OC)CCCC3)cc1 | inactive: -1.24%
COc1cc(OC)c(NC(=O)CC(C)S(=O)(=O)c2ccc3c(c2)NC(=O)CO3)cc1Cl (stereo unspecified) | inactive: 2.06%
COc1ccc(S(=O)(=O)NCCc2csc(-c3cccc(F)c3)n2)cc1OC | inactive: 2.48%
CCn1cc(S(=O)(=O)c2ccc(OC)cc2)c(=O)c2cc(F)c(N3CCCCCC3)cc21 | inactive: -12.3%
COc1ccc(NC(=O)c2cccn2-c2nnc(N3CCCCC3)s2)c(OC)c1 | inactive: -0.865%
CCOC(=O)COc1cc(C)c(Cl)cc1C(=O)c1ccn2nc(-c3ccc(OC)cc3)cc2n1 | inactive: 27.6%
O=C(CSc1ncc2c(n1)-c1cc(Cl)ccc1N(Cc1ccccc1)S2(=O)=O)NCCc1ccccc1 | inactive: 21.2%
CS(=O)(=O)Nc1ccc(-c2nc3ccccc3s2)cc1 | inactive: 1.61%
CCOC(=O)c1ccc(NC(=O)CSc2nc(-c3ccc(F)cc3)cc(C(F)(F)F)c2C#N)cc1 | inactive: 5.23%
Cc1ccc(NC(=O)Nc2c(C)n(C)n(-c3ccccc3)c2=O)c(Cl)c1 | inactive: 1.03%
CCOc1ccc(NC(=O)C2=C(C)C(=O)OC23CCC(C)CC3)cc1 (stereo unspecified) | inactive: 6.58%
Cc1ccc2c(=O)c(C(=O)c3ccc(F)cc3)cn(CC(=O)NCc3ccccc3)c2n1 | inactive: -20.8%
COc1cccc(Cn2c(CNC(=O)C(C)C)nc3cccnc32)c1 | inactive: 13.7%
COc1ccc(OC)c(S(=O)(=O)NCCc2sc(-c3ccc(C)cc3)nc2C)c1 | inactive: -11.9%
COc1ccc(N2CCN(C(=O)c3ccc(C)c(NC(=O)c4nsc5ccccc45)c3)CC2)cc1 | inactive: 4.2%
CCOC(=O)c1c(NC(=O)/C=C/c2ccccc2)sc2c1CCCC2 | inactive: 24%
COc1ccc(-c2cn3c(n2)sc2cc(C(=O)NCc4ccccc4OC)ccc23)cc1 | inactive: -1.59%
COC(=O)c1cc(S(=O)(=O)NCC2CCN(Cc3cc(C)ccc3C)CC2)c[nH]1 | inactive: -18.2%
CC(C)(C)OC(=O)N1CCC(c2c(C(=O)NCc3ccccn3)cnn2-c2ccccc2)CC1 | inactive: 13.5%
COc1ccc(C(=O)Nc2ccc(-c3nc4ncccc4o3)cc2)cc1 | inactive: 6.27%
CCN(CC)c1ccc(NC(=O)CSc2nnc(C)c(=O)[nH]2)cc1 | inactive: -12.1%
Cc1ccc(S(=O)(=O)c2cnc(SCC(=O)Nc3cc(C)cc(C)c3)nc2N)cc1 | inactive: 5.87%

Compound | activity change, negative = cytotoxicity
Cc1cc(Nc2ccc(C)c(C)c2)n2cnnc2n1 | inactive: 5.02%
COC(=O)c1ccccc1NC(=O)Cn1cc(S(=O)(=O)Cc2ccccc2F)c2ccccc21 | inactive: -4.86%
CCOC(=O)c1c(C)oc2nc(C)nc(NCc3ccccc3Cl)c12 | inactive: 8.21%
CCCCc1ccc(-n2nc3cc(C)c(NC(=O)Cc4ccccc4)cc3n2)cc1 | inactive: 1.32%
Cc1ccc2cccc(NC(=O)COc3ccccc3[N+](=O)[O-])c2n1 | inactive: -5.16%
COC(=O)c1c(-c2cccs2)csc1NC(=O)c1ccc(Cl)cc1 | inactive: -0.495%
Cc1cccc(CN2C(=O)c3ccccc3Sc3ccc(C(=O)N4CCCC4)cc32)c1 | inactive: 1.51%
CCOC(=O)c1c(NC(=O)COc2ccccc2F)sc2c1CCCC2 | inactive: 6.77%
CSCCC(NS(=O)(=O)c1ccc2c(c1)oc(=O)n2C)C(=O)NCCc1ccc(C)cc1 (stereo unspecified) | inactive: 0.0309%
CCS(=O)(=O)N1CCC(C(=O)NCCC(C)C)CC1 | inactive: 10.2%
CN(C1CCCCC1)S(=O)(=O)c1ccc2c(c1)c(=O)c(C(=O)NCCc1ccc(Cl)cc1)cn2C | inactive: 1.79%
CC(=O)Nc1ccc(S(=O)(=O)NC2(C(F)(F)F)NC(=O)N(c3ccc(C)cc3)C2=O)cc1 (stereo unspecified) | inactive: 3.07%
O=C(c1cccc([N+](=O)[O-])c1)N1c2ncnn2C2(CCCCC2)[C@@H]2CCCC[C@@H]21 | inactive: -12.5%
Cc1ccc(S(=O)(=O)c2cnc(SCC(=O)Nc3ccc4c(c3)OCCO4)[nH]c2=O)cc1 | inactive: 5.08%
COc1cccc(OCCCCn2c(-c3ccc(Cl)cc3)nc3ccccc3c2=O)c1 | inactive: 4.99%
Cc1ccc(-c2onc(C)c2C)cc1S(=O)(=O)NCc1ccco1 | inactive: -10.2%
O=S(=O)(NCCSc1nnnn1-c1ccccc1)c1ccc(F)cc1 | inactive: -0.553%
CCc1nc2nc(C)cc(Nc3ccc(OC)cc3)n2n1 | inactive: -19.6%
Cn1c(SCC(=O)N2CCCc3ccccc32)ncc(C(=O)Nc2ccc(Cl)cc2)c1=O | inactive: 8.76%
COc1cccc(CN(Cc2ccco2)c2cnc(S(C)(=O)=O)nc2C(=O)Nc2cccc(Cl)c2C)c1 | inactive: -0.312%
COc1ccc(OC)c(NC(=O)c2cc3c(s2)-c2ccccc2SC3)c1 | inactive: -7.02%
Cc1c(NS(=O)(=O)c2cccc(C(=O)O)c2)c(=O)n(-c2ccccc2)n1C | inactive: 1.74%
COc1ccccc1-c1c(C)nn2c(N3CCN(c4cccc(Cl)c4)CC3)cc(C)nc12 | inactive: 3.12%
O=C(CSc1nnc(CNC(=O)c2c(F)cccc2Cl)o1)Nc1ccccc1F | inactive: -2.06%

Compound | activity change, negative = cytotoxicity
CCC(=O)N1c2ccccc2CC1C(=O)NCc1ccccc1C (stereo unspecified) | inactive: -9.38%
COCCCNC(=O)c1cc2n(n1)CCCN(Cc1ccc(C)cc1)C2=O | inactive: -4.97%
Cc1ccc(C)c(NS(=O)(=O)c2ccc3c4c(cccc24)C(=O)N3)c1 | inactive: -17.7%
COc1cccc(Cn2nnc3c(=O)[nH]c(C4CCCN(C(=O)c5ccc(C)cc5)C4)nc32)c1 (stereo unspecified) | inactive: -23.1%
CS(=O)(=O)c1ncc(N(Cc2ccco2)Cc2ccco2)c(C(=O)Nc2ccccc2Br)n1 | inactive: -8.66%
Cc1ccc(-n2ncc(C(=O)NC3CCCC3)c2C2CCN(C(=O)OC(C)(C)C)CC2)c(C)c1 | inactive: -10.5%
CC1=C(C(=O)OCc2ccc(C)cc2)C(c2c(Cl)cccc2Cl)CC(=O)N1 (stereo unspecified) | inactive: 16%
COc1ccc(OC)c(Nc2nc3ccccc3n3c(C)nnc23)c1 | inactive: 4.32%
CCOc1ccccc1NC(=O)CC1C(=O)NCCN1C(=O)c1ccc(F)cc1 (stereo unspecified) | inactive: 1.45%
COc1ccc(COC(=O)c2[nH]c3c(c2C)C(=O)CC(c2ccc(OC)c(OC)c2)C3)cc1 (stereo unspecified) | inactive: -2.87%
C#CC(C)(CC)NC(=O)Cn1nnc(-c2ccc(OCc3ccccc3F)cc2)n1 (stereo unspecified) | inactive: -5.04%
Cc1cc(NC(=O)c2ccc(-c3ccc(Cl)cc3)o2)cc(-c2nc3ncccc3o2)c1O | inactive: 20.5%
Cc1ccc(CNC(=O)c2cnc(N(C)C)nc2)cc1 | inactive: 7.01%
CCCCN(C)CCNC(=O)c1cc(=O)[nH]c2ccc(S(=O)(=O)N3CCCCCC3)cc12 | inactive: -1.12%
Cc1ccc(NC(=O)c2ncn(-c3ccccc3)n2)cc1Cl | inactive: -7.01%
COc1ccc(NC(=O)c2oc3ccccc3c2NC(=O)c2cc(=O)c3c(C)cc(C)cc3o2)cc1 | inactive: -0.439%
Cc1nc(-n2nc(C)c(Cc3ccccc3Cl)c2C)sc1C(=O)N1CCCCC1C (stereo unspecified) | inactive: -8.77%
COc1ccc(-c2nc(C(=O)Nc3cccc(C(C)=O)c3)nn2-c2ccc(Cl)cc2)cc1 | inactive: 4.57%
Cc1cc(NC(=O)CCCn2c(C)c3cnn(-c4ccccc4)c(=O)c3c2C)ccc1Br | inactive: -6.09%
Cc1cc(C)cc(C(=O)N(Cc2nc(-c3ccc(Cl)cc3)no2)C(C)C)c1 | inactive: -17%
CCOc1ccccc1NC(=O)CN1C(=O)CC(c2ccco2)Sc2ccccc21 (stereo unspecified) | inactive: 0.213%
O=S(=O)(c1ccc2ccccc2c1)n1nc(-c2ccco2)nc1NCc1ccc(F)cc1 | inactive: 6.01%
COCCNC(=O)C(=O)NCC(c1ccc2c(c1)OCO2)N1CCOCC1 (stereo unspecified) | inactive: 0.394%
COC(=O)c1ccc(OCC(O)Cn2cnc3cc(C)c(C)cc32)cc1 (stereo unspecified) | inactive: 6.98%

Compound | activity change, negative = cytotoxicity
CCN(C(=O)CSc1ncc(S(=O)(=O)c2ccc(C)c(Cl)c2)c(=O)[nH]1)c1cccc(C)c1 | inactive: -3.65%
CC(=O)c1cccc(S(=O)(=O)NCCc2csc3nc(-c4ccc(F)cc4)nn23)c1 | inactive: -16.9%
Cc1nc(CC(=O)Nc2cccc(C)c2C)cs1 | inactive: 3.24%
CC(C)c1ccc(S(=O)(=O)c2nnn3c2nc(NC2CCCC2)c2sccc23)cc1 | inactive: -1.72%
Cc1ccc(CSCC(=O)N2CCN(c3ccc(F)cc3)CC2)cc1 | inactive: -3.1%
Cc1ccc2c(=O)cc(CSc3ccccc3)[nH]c2c1C | inactive: -12.4%
COc1ccc(C(=O)NCc2ccc3c(c2)CCN3C(=O)c2ccncc2)cc1 | inactive: -25.9%
CN1c2ccccc2-c2nc(SCC(=O)Nc3ccccc3C(F)(F)F)ncc2S1(=O)=O | inactive: -4.12%
COc1ccc2c(c1)-c1nc(NC(=O)c3cc(Cl)ccc3OC)sc1CC2 | inactive: -2.86%
Cc1ccc(CN2CCCn3nc(C(=O)NCCc4ccc(Cl)cc4)cc3C2=O)cc1 | inactive: -8.13%
COc1ccccc1CNC(=O)CCn1c(=O)c2ccccc2n(CC(=O)Nc2ccc(C)cc2C)c1=O | inactive: -4.58%
CCN(Cc1ccccc1)C(=O)Cn1c(=O)n(Cc2ccccc2)c(=O)c2c1c1cc(OC)ccc1n2C | inactive: 24.1%
COc1ccc(C(CC(=O)Nc2ccc(C)c(C)c2)N2Cc3ccccc3C2=O)cc1OC (stereo unspecified) | inactive: 2.98%
Cc1ccc(CSc2nc3ccc(NC(=O)C(C)C)cc3s2)cc1 | inactive: 3.85%
CCOC(=O)C1=C(CS(=O)(=O)c2ccc(Br)cc2)NC(=O)NC1c1ccccc1 (stereo unspecified) | inactive: -4.54%
Cc1ccccc1CNC(=O)c1ccc(-c2nc(CS(=O)(=O)c3ccccc3)c(C)o2)cc1 | inactive: -14.2%
COC(=O)c1cc(NC(=O)Cn2nc(C)n3cccc3c2=O)cc(C(=O)OC)c1 | inactive: 17.3%
Cc1ccc(-c2c(C(=O)NCc3ccccc3)oc(=O)c3ccccc23)cc1 | inactive: 3.53%
COc1cc(NC(=O)c2cc(Cl)c(OC)c(Cl)c2)ccc1NC(=O)c1cc2ccccc2o1 | inactive: 3.09%
CC(=O)c1c(C)oc2ccc(N(C(=O)Oc3ccccc3)S(=O)(=O)c3ccc(C(C)(C)C)cc3)cc12 | inactive: 2.35%
CCc1cccc(C)c1NC(=O)c1cc(C)nc2c1c(C)nn2-c1cccc(Cl)c1C | inactive: -2.35%
COc1ccc(C)cc1NC(=O)CN(c1cc(C(F)(F)F)ccc1Cl)S(C)(=O)=O | inactive: 25.8%
C=CCc1cccc2cc(C(=O)Nc3cccc(Cl)c3)c(=O)oc12 | inactive: 7.79%
CCOC(=O)c1sc2ccccc2c1S(=O)(=O)Nc1cccc(C(F)(F)F)c1 | inactive: -3.9%
